# Experimental data published in PMC4336329 (PLoS ONE, 2015).
# Among all 310,000 compounds or so, about 2,200 (0.71%) showed an effect of 50% or more. Effects have a minus sign here. The list shows a part of the results.
# Target: human ether-à-go-go-related gene (hERG) potassium channel (human, UniProt Q12809)
# Assay: primary screen, population patch clamp on CHO cells stably expressing hERG
# Sequence of human ether-à-go-go-related gene (hERG) potassium channel (Q12809 whole entry, looked up): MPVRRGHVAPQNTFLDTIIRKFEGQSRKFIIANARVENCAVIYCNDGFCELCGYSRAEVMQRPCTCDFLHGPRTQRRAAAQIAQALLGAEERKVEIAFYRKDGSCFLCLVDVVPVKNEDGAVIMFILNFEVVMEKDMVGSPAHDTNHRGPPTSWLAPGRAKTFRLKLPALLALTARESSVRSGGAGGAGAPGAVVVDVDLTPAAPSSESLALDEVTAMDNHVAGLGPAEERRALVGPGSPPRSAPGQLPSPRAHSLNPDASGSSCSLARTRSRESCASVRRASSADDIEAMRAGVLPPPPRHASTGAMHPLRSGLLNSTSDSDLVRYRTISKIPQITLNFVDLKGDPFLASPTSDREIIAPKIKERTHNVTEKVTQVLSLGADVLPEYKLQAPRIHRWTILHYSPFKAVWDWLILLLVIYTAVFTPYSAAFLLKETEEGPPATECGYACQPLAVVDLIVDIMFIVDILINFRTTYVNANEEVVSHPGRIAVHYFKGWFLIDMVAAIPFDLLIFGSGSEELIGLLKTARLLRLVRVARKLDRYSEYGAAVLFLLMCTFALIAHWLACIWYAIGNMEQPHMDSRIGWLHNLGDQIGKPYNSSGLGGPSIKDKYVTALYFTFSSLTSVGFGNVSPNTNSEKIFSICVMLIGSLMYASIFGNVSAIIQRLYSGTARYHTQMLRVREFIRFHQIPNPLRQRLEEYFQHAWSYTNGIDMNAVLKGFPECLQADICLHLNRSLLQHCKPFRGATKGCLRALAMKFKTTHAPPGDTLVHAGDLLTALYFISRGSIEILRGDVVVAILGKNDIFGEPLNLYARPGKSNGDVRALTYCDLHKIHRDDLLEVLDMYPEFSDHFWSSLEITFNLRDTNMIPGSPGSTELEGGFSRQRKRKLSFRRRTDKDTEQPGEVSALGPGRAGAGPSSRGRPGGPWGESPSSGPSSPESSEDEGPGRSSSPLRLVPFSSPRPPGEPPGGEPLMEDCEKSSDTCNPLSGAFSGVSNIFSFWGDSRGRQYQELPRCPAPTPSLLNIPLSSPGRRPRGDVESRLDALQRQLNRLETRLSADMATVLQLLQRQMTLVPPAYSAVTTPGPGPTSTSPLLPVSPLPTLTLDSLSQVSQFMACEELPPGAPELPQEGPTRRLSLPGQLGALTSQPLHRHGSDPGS
row,Structure (SMILES),"hERG current change (%, negative = inhibition) at 1uM"
1,Cc1cccc(C(=O)NCC(c2ccc(F)cc2)N2CCOCC2)c1 (stereo not drawn),0.0425%
2,COc1cccc(CN(C)C(=O)Cc2c[nH]c3ccccc23)c1OC,13.2%
3,CCN1C(=O)/C(=C2/C=Cc3cc(C)ccc3N2CC)N(C)C1=S,-14.1%
4,C=CCN1C(=O)N(c2ccc(Cl)cc2)C(=O)C1CC(=O)Nc1ccc(F)cc1 (stereo not drawn),5.41%
5,Cc1ccc(S(=O)(=O)N2CCOCC2)cc1C(=O)NC(=S)N1CC(C)CC(C)C1 (stereo not drawn),11.2%
6,Cc1nn(CC(=O)Nc2ccc(F)cc2)c(=O)c2ccccc12,8.42%
7,CC(C)(C)c1cc(-n2ccnc2)n2ncc(-c3ccc(Cl)cc3)c2n1,10.5%
8,CCOC(=O)C1=C(C)NC(=O)NC1c1cc2c(cc1Br)OCO2 (stereo not drawn),12.5%
9,O=C(O)CCCNC(=O)CCCn1nnc2ccccc2c1=O,6.07%
10,CNC(=O)c1cc(C(=O)c2ccc(Cl)cc2)c(Br)[nH]1,10.6%
11,CCOC(=O)/C(C#N)=C1/C=CN(c2ccccc2)C=N1,7.43%
12,O=C(O)c1c2c(nc3ccccc13)CCCCC2,18.1%
13,CC1(C)CC2CC(C)(CN2S(=O)(=O)c2ccc(C(=O)Nc3cccc(S(=O)(=O)N4CCOCC4)c3)cc2)C1 (stereo not drawn),7.05%
14,C[C@@H](CN1C2=NC[C@H](C)N2C[C@H]1Cc1ccc(O)cc1)NC(=O)CCC1CCCCC1,12.7%
15,Cc1cccc(-c2nc(S(=O)(=O)c3ccc(F)cc3)c(NCCCN3CCOCC3)o2)c1,12.1%
16,CCOc1ccc(CN(C)C(=O)CCN2C(=O)c3ccccc3C2=O)cc1OC,16%
17,CC(NC(=O)c1ccc(Br)cc1)c1ccccc1 (stereo not drawn),7.96%
18,Cc1cccc(-c2noc(CN(C(=O)C34CC5CC(CC(C5)C3)C4)C(C)C)n2)c1,13.5%
19,COc1ccccc1NC(=S)NC12CN3CN(CN(C3)C1)C2,14.1%
20,Cc1cc(C)nc(NS(=O)(=O)c2ccc(NC(=O)CN3C(=O)C4CC=CCC4C3=O)cc2)n1 (stereo not drawn),8.99%
21,COc1ccc(CNC(=O)CSc2nnc(C)s2)cc1,11%
22,O=C(CSc1ccccc1F)NCCCN1CCCC1=O,9.89%

row,Structure (SMILES),"hERG current change (%, negative = inhibition) at 1uM"
1,COc1cc(NC(=O)Cc2ccc(S(=O)(=O)N3CCOCC3)s2)c(OC)cc1Cl,16.6%
2,NC(=O)c1nsc(C(=O)N(c2ccccc2)C(C(=O)NCC2CCCO2)c2cccs2)c1N (stereo not drawn),3.6%
3,Cc1ccc(C(C)(C)C)cc1S(=O)(=O)N1CCC(C(=O)N2CCN(c3ccc(O)cc3)CC2)CC1,10.8%
4,O=C(CCl)NN1C(=O)NC(c2ccccc2)(c2ccccc2)C1=O,14.5%
5,Cc1noc(C)c1CSc1nnc(-c2ccncc2)n1-c1ccc(Cl)c(Cl)c1,-1.71%
6,Cc1ccc(SCC(=O)OCC(=O)Nc2ccc3[nH]c(=O)[nH]c3c2)cc1C,12.5%
7,CCOC(=O)Cc1csc(NC(=O)C(C)(C)C)n1,11.5%
8,O=C(Cn1cnc2cc([N+](=O)[O-])ccc2c1=O)Nc1cccc2ccccc12,2.57%
9,O=C(NCc1ccco1)c1nnc(Cc2ccc(F)cc2)o1,4.3%
10,Cc1cccc(C)c1NC(=O)CSc1nnc(-c2ccco2)n1N,11.5%
11,CCn1nc(C(=O)N2CCc3ccccc3C2)c2ccccc2c1=O,6.42%
12,Cc1ccc(S(=O)(=O)N(C)C)cc1NC(=S)N(C)C1CCN(C)CC1,16.4%
13,O/N=C1/CCCSc2ccccc21,2.76%
14,CCN(CC(O)Cn1c2ccccc2c2ccccc21)S(=O)(=O)c1ccc(C)cc1 (stereo not drawn),12.9%
15,C/C(=N\NC(=O)C(=O)Nc1cc(Cl)ccc1Cl)c1ccncc1,-0.787%
16,C=C(C)CN1C(=O)C(O)(CC(=O)c2ccc3c(c2)OCCO3)c2ccccc21 (stereo not drawn),-5.96%
17,O=C(COC(=O)c1ccc(CO)cc1)NCc1cccs1,10.4%
18,Cc1ccc(C)c(NC(=O)N2CCCCCC2)c1,12.7%
19,Cn1cc(C(=O)N2CCN(C(=O)c3ccco3)CC2)c2c3ccccc3n(C)c2c1=O,3.33%
20,CCCCCN(C(=O)CCC(=O)OCC(=O)Nc1cccc(CC)c1)c1c(N)n(CCCC)c(=O)[nH]c1=O,9.04%
21,Cc1cc(=O)oc(C)c1C(=O)n1nc(C)c2c1C[C@@H]1[C@H]2C1(C)C,6.09%
22,C=CCn1c(SCC(=O)Nc2c(C)cccc2C)nnc1-c1cnccn1,4.97%

row,Structure (SMILES),"hERG current change (%, negative = inhibition) at 1uM"
1,CCOC(=O)N1CCC(N2C(=O)c3ccccc3C2Nc2ccc3c(c2)OCCO3)CC1 (stereo not drawn),7.16%
2,COc1ccccc1NC(=O)/C=C\c1ccco1,3.59%
3,Cl.O=C(O)c1cccc(Nc2nc(-c3ccccc3)nc3ccccc23)c1,22.4%
4,CCc1nn(CC(=O)N2CCC3(CC2)OCCO3)c(=O)c2cc3ccccc3n12,9.77%
5,CCOC(=O)N1CCN(CC(=O)Nc2cc(OC)c(OC)cc2C#N)CC1,14.7%
6,CC(=C\c1ccccc1)/C=C1/SC(=S)N(CCCC(=O)O)C1=O,17.5%
7,C=CCc1ccccc1OCCOc1ccc([N+](=O)[O-])cc1/C=N/NC(N)=O,6.5%
8,Cc1c(C(=O)c2cccc([N+](=O)[O-])c2)c2ccccn2c1CCC#N,8.34%
9,Cc1ccc(-n2c(SCC(=O)Nc3ccc4c(c3)OCO4)nnc2-c2ccoc2C)cc1,-2.17%
10,COc1ccc2oc(=O)c(C(=O)Oc3ccc(NC(C)=O)cc3)cc2c1,-0.896%
11,N=Nc1c(O)n(CC(=O)Nc2ccccc2)c2ccccc12,9.49%
12,CCN1C(=O)/C(=C\N2CCN(c3ccccc3)CC2)SC1=S,10%
13,COc1cc(/C(C)=N/NC(=O)c2cccc(S(=O)(=O)N3CCCC3)c2)cc(OC)c1OC,15%
14,C=CCN(CC=C)S(=O)(=O)c1ccc(NC(=S)NC(=O)Cc2ccc(OC)cc2)cc1,10.5%
15,COc1ccccc1NC(=O)CCNS(=O)(=O)c1ccc2c(c1)CCN2C(C)=O,1.81%
16,CCc1nc2ccccc2c(C(=O)Nc2cccc(C)c2)c1C,16.5%
17,COc1ccccc1/C=N/NC(=O)c1ccccc1NS(=O)(=O)c1ccc(C)cc1,10.9%
18,O=C(NC1CCCC1)C(c1ccc(Cl)cc1)N(C(=O)c1csnn1)C1CC1 (stereo not drawn),8.05%
19,CN(CCc1ccccn1)C(=O)CCNC(=O)Cn1cnc2ccccc2c1=O,25.4%
20,CCC(=NCc1ccc2c(c1)OCO2)c1c(O)n(C2CCCCC2)c(=O)[nH]c1=O,1.39%
21,CCCC1C(=O)N2C(N(C)C)=Nc3ccc(C)cc3N2C1=O (stereo not drawn),14.6%
22,COc1ccc(C(=O)Nc2ccccc2C(=O)NCc2cccnc2)cc1,4.97%

row,Structure (SMILES),"hERG current change (%, negative = inhibition) at 1uM"
1,Cc1cc(C)cc(NC(=O)c2ccc(NC3=NC4CS(=O)(=O)CC4S3)cc2)c1 (stereo not drawn),6.88%
2,CCOc1ccccc1Nc1nc(-c2sc(NC(=O)c3ccc([N+](=O)[O-])cc3)nc2C)cs1,5.05%
3,Cc1nn(CC2CC2)c(=O)n1-c1cccc(Cl)c1,7.37%
4,COc1ccc(NC(=O)c2cc([N+](=O)[O-])nn2Cc2ccccc2)c(C)c1,4.91%
5,O=S(=O)(NCc1ccc(C(F)(F)F)cc1)c1ccc(-n2cnnn2)cc1,-0.265%
6,O=C(c1cc(-c2ccccc2)on1)N1CCCCCC1,13.7%
7,O=C(NCCc1ccccc1)c1ccc2nc3cc(Cl)ccc3c(=O)n2c1,18.9%
8,O=C(c1ccc(F)c(S(=O)(=O)N2CCOCC2)c1)N1CCN(c2ncccn2)CC1,7.59%
9,COc1ccc(C(=O)CNc2ccccc2CO)cc1,21.2%
10,CCc1ccccc1N(CC(=O)N1CCCCC1)S(=O)(=O)c1ccccc1,14.5%
11,CCN(Cc1ccncc1)C(=O)c1cccs1,7.16%
12,Cn1c(SCC(=O)NCC2CCCO2)ncc(C(=O)Nc2ccc(F)cc2)c1=O (stereo not drawn),5.38%
13,Cc1ccc(NC2CCCN(C(=O)c3ccoc3)C2)cc1C (stereo not drawn),14.4%
14,C=CCc1ccccc1OCC(O)CNC(C)C.Cl (stereo not drawn),-9.57%
15,O=C(N/N=C/c1ccc([N+](=O)[O-])o1)c1cn2ccc3ccccc3c2n1,8.95%
16,CCNC(=O)C(=O)Nc1ccc([N+](=O)[O-])cc1,10%
17,Cn1c(=O)n(CC(=O)Nc2ccccc2)c2ccccc21,2.53%
18,COc1ccc(C(=O)c2ccc(Cl)cc2Cl)cc1,3.74%
19,COc1ccc(C(C(=O)NCc2ccc(F)cc2)N(C(=O)c2csnn2)C2CC2)cc1 (stereo not drawn),-4.62%
20,NC(=O)c1sc(=S)n2c1[nH]c(=O)c1sccc12,6.55%
21,Cc1cc(NCC2CCCO2)n2c(nc3ccccc32)c1C#N (stereo not drawn),6.98%
